Out of some 45,000 compounds screened, about 200 (0.44%) were called active. Not shown: some 7% with an inconclusive outcome. The call rests on the fitted dose curve; in most records, active means well fitted activation curve with a large enough effect; inconclusive means small, poorly fitted or top-dose-only effect; inactive means no such curve, though single readings can be large or run the other way. The list shows a part of the results.
assay: qHTS of TDP-43 Inhibitors: NCGC Sytravon Library Screen; details: yeast TDP-43 toxicity rescue, BacTiter-Glo growth, 24 h; series mostly up to 46.1 µM; growth rescue (activation): at the top concentration; further: 0% is about no effect; nearly all actives have a fitted effect of over 55% in size
In short: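 TDP-43-expressing yeast, pregrown in raffinose, seeded at OD600 0.02 in galactose medium with compound for 24 hr at 30 deg C. Growth read by BacTiter-Glo luminescence, so rescue of toxicity appears as activation.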

Row | Compound | growth rescue (activation)
1 | CCNCCC(CCC(C)C)c1ccc2c(c1)OCO2 (configuration not stated) | inactive: 1.33%
2 | COc1ncnc2c1oc1nc(CC(C)C)c3c(c12)CCCC3 | inactive: 6.89%
3 | CS(=O)(=O)N(CC(=O)NCCSCc1ccccc1)c1ccccc1 | inactive: -0.627%
4 | COc1ccc(N2CCN(c3ccc([N+](=O)[O-])cc3Cl)CC2)cc1 | inactive: 3.99%
5 | Nc1n[nH]c(-c2cccc([N+](=O)[O-])c2)n1 | inactive: 15.4%
6 | O=C(Cn1cnc2ccccc2c1=O)NNC(=O)c1ccccc1F | inactive: 7.49%
7 | COc1ccccc1CC(=O)Nc1ccc(S(=O)(=O)N2CCN(C)CC2)cc1 | inactive: 12.3%
8 | CCOC(=O)c1ccc2c(c1)C1C=CCC1C(C(=O)OCC)N2 (configuration not stated) | inactive: 17.5%
9 | CN1CCN(S(=O)(=O)c2ccc(C(=O)NC3CCCCC3)cc2)CC1 | inactive: 6.53%
10 | CCOc1ccc(OCCCCOc2ccccc2C(C)=O)cc1 | inactive: 18.2%
11 | O=C(c1cc([N+](=O)[O-])ccc1N1CCN(S(=O)(=O)c2ccc(Cl)c(Cl)c2)CC1)N1CCOCC1 | inactive: -2.48%
12 | O=C(O)c1ccc(CN2C(=O)c3cccc4c([N+](=O)[O-])ccc(c34)C2=O)cc1 | inactive: 1.14%
13 | Cn1c(SCC(=O)NC2CCCCCC2)nnc1-c1cccs1 | inactive: 23.3%
14 | CN(C)CCn1cnc2c1c(=O)n(C)c(=O)n2C | inactive: 5.04%
15 | CCCCNC(=O)c1ccc2nc(CC)c(N(CC)CCN(C)C)n2c1 | inactive: 5.5%
16 | O=[N+]([O-])c1ccc(/C=N/Nc2nc(NCc3ccccc3)nc(N3CCOCC3)n2)cc1 | inactive: -2.74%
17 | O=C(O)C1CC=CCC1C(=O)NCCCCc1ccccc1 (configuration not stated) | inactive: 5.21%
18 | COC(=O)c1c(NC(C)=O)sc2c1CCCCC2 | inactive: 7.5%
19 | COc1cc(C(=O)OCC(=O)NC(C)CCc2ccccc2)cc(OC)c1OC (configuration not stated) | inactive: -15.5%
20 | COc1ccc2[nH]c(=O)c(CN(C(=O)c3cccnc3)c3ccccc3C)cc2c1 | inactive: -14.7%
21 | COc1cccc(NC(=O)N2CCCC(C(=O)NC3CCCCC3C)C2)c1 (configuration not stated) | inactive: 18.4%
22 | CCn1c(SCC(=O)Nc2ccc3c(c2)OCO3)nnc1C(C)C | inactive: -1.12%
23 | COc1cc(NC(=O)c2cccc([N+](=O)[O-])c2)ccc1NC(=O)c1cc2ccccc2o1 | inactive: -18%

Row | Compound | growth rescue (activation)
24 | COc1cccc(NC(=O)Nc2cccn(Cc3ccc(C)cc3)c2=O)c1 | inactive: -1.79%
25 | Cc1ccc(NC(=O)C2CC(O)CN2C(=O)OCc2ccccc2)c(C)c1 (configuration not stated) | inactive: -4.67%
26 | O=C(Cc1ccccc1)Nc1ccc(Br)c(Cl)c1 | inactive: 28.7%
27 | COCCn1c(-c2cccs2)csc1=Nc1cccnc1 | inactive: 0.255%
28 | CCC(C)(C)NC(=O)CN(Cc1ccccc1)C(=O)CCC(=O)Nc1nccs1 | inactive: -7.84%
29 | CCC(C)Nc1nc(Cl)nc(N(C#N)CN2C(=O)c3ccccc3S2(=O)=O)n1 (configuration not stated) | inactive: 0.127%
30 | O=S1(=O)CCC(NC(=S)NCCNC(=S)NC2CCS(=O)(=O)C2)C1 (configuration not stated) | inactive: 6.31%
31 | COc1ccc(C(=O)NCc2ccc(S(N)(=O)=O)cc2)cc1[N+](=O)[O-] | inactive: 12.5%
32 | O=C(CN1C(=O)CSc2ccc(S(=O)(=O)N3CCOCC3)cc21)NCCCN1CCOCC1 | inactive: -8.04%
33 | COc1ccc(CNCCC(c2ccc(F)cc2)c2ccc(OC)cc2)cc1 (configuration not stated) | inactive: 12.8%
34 | COc1ccc(OCCNS(=O)(=O)Cc2ccccc2)cc1 | inactive: 6.64%
35 | COc1cc(OC)cc(-c2nnc(SCC(=O)Nc3ccc(C(=O)O)cc3)s2)c1 | inactive: 0.705%
36 | Cc1ccc(S(=O)(=O)N2CCN(C(=O)COC(=O)c3cncc(Br)c3)CC2)c(C)c1 | inactive: 11.9%
37 | COc1ccc2c(-c3ccccc3)cc(SCC(N)=O)nc2c1 | inactive: 24.3%
38 | O=C(CC1C(=O)NCCN1Cc1ccc(Cl)c(F)c1)NCCc1cccnc1 (configuration not stated) | inactive: 6.72%
39 | CNC(=S)N1CCN(C(c2ccccc2)c2ccccc2)CC1 | inactive: 6.37%
40 | O=C(O)Cc1sc(N/N=C\c2ccccc2)nc1-c1ccccc1 | inactive: 5.25%
41 | CC1CN(C(=O)COC(=O)c2cccc(S(=O)(=O)N3CCc4ccccc43)c2)CC(C)O1 (configuration not stated) | inactive: -2.13%
42 | CC(=O)Nc1cccc(Nc2nc(-c3ccccc3)nc3ccccc23)c1 | inactive: 19.1%
43 | CCOCc1c(C(=O)Nc2ccc3nc(N4CCOCC4)sc3c2)oc2ccccc12 | inactive: 26.7%
44 | CC(C)(C)C(=O)NC1CCN(CC(=O)Nc2ccc3c(c2)OCO3)CC1 | inactive: -20.2%
45 | CCN(CC)C(=O)Cn1c(=O)n(Cc2ccc(F)cc2)c(=O)c2sccc21 | inactive: 10.9%
46 | CCc1ccc(OCC(=O)Nc2ccc(S(=O)(=O)Nc3ccccn3)cc2)cc1 | inactive: 7.68%

Row | Compound | growth rescue (activation)
47 | Cc1c(C(=O)OCC[N+]2(C)CCCCC2)oc2ccccc12 | inactive: -31%
48 | Cc1cccc(C(=O)NNC(=O)Nc2ccccc2)c1 | inactive: -3.76%
49 | CCCCc1c(C)nc2ccccc2c1SCCC(=O)O | inactive: 15.4%
50 | COc1ccccc1CNC(=O)CSc1nn2c(=O)c(C(C)(C)C)nnc2s1 | inactive: 15.9%
51 | C[C@@H]1CN(C2CCN(Cc3nc(CC4CC4)no3)CC2)C[C@H](C)O1 | inactive: -2.32%
52 | Cc1cccc(C)c1NC(=O)c1ccc2c(c1)CCN2S(C)(=O)=O | inactive: 5.18%
53 | C/C(CC(=O)Nc1ccc(N(C)C)cc1)=N\NC(=O)c1ccc([N+](=O)[O-])cc1 | inactive: 5.79%
54 | O=C(CCc1ccccc1)NNC(=O)c1cc(Cl)ccc1O | inactive: 2.7%
55 | O=C(Nc1cccc(C(F)(F)F)c1)Nc1cccs1 | inactive: 15%
56 | O=C(NC(Cc1ccccc1)C(=O)N1CCN(S(=O)(=O)c2ccccc2F)CC1)c1ccccc1 (configuration not stated) | inactive: 10.3%
57 | COc1cc(C(C(=O)NC2CCCCC2)N(C(=O)Cc2c[nH]c3ccccc23)c2ccc(C)cc2)cc(OC)c1OC (configuration not stated) | inactive: -8.08%
58 | O=C(CCN1C(=O)c2ccccc2C1=O)NC(=S)Nc1ccccc1 | inactive: 20%
59 | O=C(COC(=O)c1cc([N+](=O)[O-])ccc1N1CCCC1)Nc1ccccc1OC(F)F | inactive: 20.2%
60 | O=C(Cn1c(C(F)(F)F)nc2ccccc21)N/N=C/c1ccco1 | inactive: 9.39%
61 | Cc1ccc(-n2c(SCC(=O)Nc3cc(S(=O)(=O)N4CCOCC4)ccc3Cl)nc3ccccc3c2=O)cc1 | inactive: 2.97%
62 | C/C(=N\Nc1nc(Cl)c(Cl)cc1Cl)c1ccc(S(=O)(=O)NCc2ccco2)cc1 | inactive: 27%
63 | COc1ccc(S(=O)(=O)N2CCCCC2)cc1NC(=O)Cn1cnc2c1c(=O)n(C)c(=O)n2C | inactive: 12.7%
64 | O=C(NC12CC3CC(CC(C3)C1)C2)c1cncc(Br)c1 | inactive: 6.52%
65 | O=C(CSCc1ccc(Br)cc1)N=Nc1c(O)[nH]c2ccccc12 | inactive: 7.58%
66 | COc1ccc(OC)c(NC(=O)CCNS(=O)(=O)c2cccc3nsnc23)c1 | inactive: 11.3%
67 | Cc1c(Cl)cccc1NC(=O)CSc1sc2c(O)cc(=O)[nH]c2c1C#N | inactive: 7.95%
